In all, about 220,000 compounds went through this assay and about 5,700 (2.6%) were called active. Inconclusive results, whose numbers are uncertain, are shown with a selection of clear calls. The call rests on the fitted dose curve; in most records, active means well fitted inhibition curve with a large enough effect; inconclusive means small, poorly fitted or top-dose-only effect; inactive means no such curve, though single readings can be large or run the other way. Potencies of inconclusive entries are doubtful fits and often do not repeat.
What follows are compounds tested against Lysine-specific demethylase 5B (Homo sapiens) (UniProt Q9UGL1) (assay: Primary screen for KDM5B Histone Demethylases FDH-coupled qHTS). Settings: FDH-coupled NADH fluorescence (FDH is formaldehyde dehydrogenase); series mostly up to 57.7 µM.
Sequence of UniProt Q9UGL1 (Q9UGL1 whole entry, looked up): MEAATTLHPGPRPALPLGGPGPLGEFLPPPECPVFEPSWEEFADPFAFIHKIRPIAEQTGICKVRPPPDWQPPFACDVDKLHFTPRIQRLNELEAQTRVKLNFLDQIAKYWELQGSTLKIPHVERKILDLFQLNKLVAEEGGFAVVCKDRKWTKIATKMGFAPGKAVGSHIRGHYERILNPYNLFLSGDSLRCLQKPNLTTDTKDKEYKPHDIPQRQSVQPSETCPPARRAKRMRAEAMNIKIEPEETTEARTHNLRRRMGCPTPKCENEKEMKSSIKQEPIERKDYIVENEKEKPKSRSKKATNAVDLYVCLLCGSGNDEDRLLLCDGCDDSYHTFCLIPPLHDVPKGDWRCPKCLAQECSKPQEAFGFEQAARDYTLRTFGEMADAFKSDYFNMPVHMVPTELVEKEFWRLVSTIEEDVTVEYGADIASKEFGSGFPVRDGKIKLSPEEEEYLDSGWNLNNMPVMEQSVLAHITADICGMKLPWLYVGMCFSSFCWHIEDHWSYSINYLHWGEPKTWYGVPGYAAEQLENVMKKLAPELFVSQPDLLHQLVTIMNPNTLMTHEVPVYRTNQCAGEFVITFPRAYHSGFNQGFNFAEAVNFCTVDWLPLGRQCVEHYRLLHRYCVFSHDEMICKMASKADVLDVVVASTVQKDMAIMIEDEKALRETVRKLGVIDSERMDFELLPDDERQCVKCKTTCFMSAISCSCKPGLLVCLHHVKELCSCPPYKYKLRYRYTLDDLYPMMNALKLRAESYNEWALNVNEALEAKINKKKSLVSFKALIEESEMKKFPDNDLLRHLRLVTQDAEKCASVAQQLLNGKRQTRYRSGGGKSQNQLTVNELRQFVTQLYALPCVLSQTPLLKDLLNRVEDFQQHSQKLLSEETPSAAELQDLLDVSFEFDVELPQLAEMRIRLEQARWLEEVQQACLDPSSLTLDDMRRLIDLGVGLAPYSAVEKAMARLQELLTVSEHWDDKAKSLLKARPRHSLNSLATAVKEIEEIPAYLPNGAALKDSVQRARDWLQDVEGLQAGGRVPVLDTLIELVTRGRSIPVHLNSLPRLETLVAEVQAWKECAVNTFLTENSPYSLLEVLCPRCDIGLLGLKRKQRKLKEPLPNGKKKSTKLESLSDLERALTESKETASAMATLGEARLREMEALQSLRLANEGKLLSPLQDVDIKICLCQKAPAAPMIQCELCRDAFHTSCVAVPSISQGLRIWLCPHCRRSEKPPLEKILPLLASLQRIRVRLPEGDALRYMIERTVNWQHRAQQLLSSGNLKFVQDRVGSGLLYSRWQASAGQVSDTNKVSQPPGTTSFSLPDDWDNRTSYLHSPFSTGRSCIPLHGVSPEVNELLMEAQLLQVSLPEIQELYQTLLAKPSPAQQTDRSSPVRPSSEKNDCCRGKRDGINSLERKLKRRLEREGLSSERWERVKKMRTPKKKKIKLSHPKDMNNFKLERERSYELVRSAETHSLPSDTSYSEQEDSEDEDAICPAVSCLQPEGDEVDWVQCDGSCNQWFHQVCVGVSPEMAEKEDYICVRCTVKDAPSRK
Method in brief: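 Here, H3K4me3 peptide (12.5 µM in substrate mix) is demethylated by KDM5BΔAP, 200 nM final, after 10 min compound exposure. Formaldehyde product is coupled through FDH (0.25 U/mL in mix) to NADH fluorescence; 30-min ΔRFU feeds dose-response curves.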
In the case of CCN(CCCNC(=O)c1cc(Nc2ccc(OC)cc2)nc2ccccc12)c1cccc(C)c1, the Potency is reported as inconclusive: 15.8 µM [inhibitor, partial curve, poor fit].
For CNc1c(NC(=O)c2ccc(OC)c(Br)c2)c(=O)oc2ccccc12, the Potency was “inactive”.
In the case of CCCc1noc(-c2ccn3c(CNC(=O)c4ccc(C)cc4)nnc3c2)n1, the Potency is reported as inconclusive: 2.24 µM [inhibitor, partial curve, poor fit].
With CN(C)[C@@H]1CN(Cc2ccsc2)CC[C@@H]1CNC(=O)C1CC1 the Potency was inconclusive: 25.1 µM [inhibitor, single point].
With CCOc1ccc(CCNC(=O)Cn2ccc3cc(S(=O)(=O)N4CCCCC4)ccc32)cc1 the Potency was inconclusive: 44.7 µM [inhibitor, single point].
COc1ccc2[nH]c(C[C@@H]3C[C@@H](C(C)C)[C@H](CN(C)C)C=C3C)nc2n1 was tested, and the Potency was inconclusive: 39.8 µM [inhibitor, single point].
For COc1ccc(-c2ocnc2C(=O)Nc2ccc3c(c2)OCCO3)cc1OC, the Potency was “inactive”.
For COc1ccccc1NC(=O)Nc1nc(CC(=O)NCC(C)C)cs1, the Potency was “inactive”.
For COCCNc1oc(-c2ccccc2C)nc1C#N, the Potency was inconclusive: 25.1 µM [inhibitor, partial curve, poor fit].
With COc1cccc(-c2nc3c([nH]2)CN(c2cc(C4CC4)ncn2)CC3)c1 the Potency was inconclusive: 17.8 µM [inhibitor, partial curve].
COC(=O)c1ccccc1NC(=O)c1oc2ccc3c(c2c1C)C(=O)CC(C)(C)O3 was tested, and the Potency was inconclusive: 2 µM [inhibitor, full curve, poor fit].
In the case of Cc1ccc(NC(=O)CCCn2c(=O)c3cccn3c3ccccc32)cc1Cl, the Potency is reported as inconclusive: 2.82 µM [inhibitor, full curve, poor fit].
In the case of Cn1cccc1C(=O)N1CCCC(c2nnnn2C)C1 (stereo unspecified), the Potency is reported as inconclusive: 22.4 µM [inhibitor, single point].
For Cc1cc(C(=O)N2CCCC(Cc3noc(-c4cnccn4)n3)C2)nn1C (stereo unspecified), the Potency was “inactive”.
O=C1CN(C(=O)COc2ccccc2)C(c2ccc(F)cc2)c2cc(Br)ccc2N1 (stereo unspecified) was tested, and the Potency was inconclusive: 4.47 µM [inhibitor, partial curve, poor fit].
In the case of CCCC1(CO)CCCN(Cc2cnc(-c3ccccn3)nc2)C1 (stereo unspecified), the Potency is reported as inconclusive: 35.5 µM [inhibitor, partial curve, poor fit].
In the case of Cc1cc(C(=O)N2CCCC[C@H](N(C)C)C2)c(-c2ccccc2)o1, the Potency is reported as inconclusive: 14.1 µM [inhibitor, partial curve, poor fit].
With CCOc1ccc(N2C(=O)c3ccccc3NC23CCCCC3)cc1 the Potency was inconclusive: 1.78 µM [inhibitor, full curve, poor fit].
CN(Cc1ccc2c(c1)OCO2)C(=O)CCc1ncc(-c2ccc(F)cc2)o1 was tested, and the Potency was “inactive”.
For Cc1ccc2[nH]c(=O)c3cc(C(=O)N(CCCOC(C)C)Cc4ccco4)sc3c2c1, the Potency was inconclusive: 3.55 µM [inhibitor, partial curve, poor fit].
COc1ccc(Cl)cc1NC(=O)CSc1nnc2[nH]c(=O)cc(-c3ccccc3)n12 was tested, and the Potency was inconclusive: 7.94 µM [inhibitor, partial curve, poor fit].
In the case of NC(=O)C1CCN(C(=O)CC2C(=O)NCCN2Cc2cccc(Oc3ccccc3)c2)CC1 (stereo unspecified), the Potency is reported as inconclusive: 20 µM [inhibitor, single point].
In the case of CCCn1cc(-c2ccncc2)cc1C(=O)NCc1cccc(F)c1, the Potency is reported as active: 25.1 µM.
In the case of Cc1nc(N/C(N)=N/S(=O)(=O)c2ccc3ccccc3c2)nc2ccccc12, the Potency is reported as “inactive”.
With N#Cc1cccc(NC(=O)O[C@@H]2CO[C@H]3[C@@H]2OC[C@@H]3Nc2nccc(-c3ccc4c(c3)OCO4)n2)c1 the Potency was inconclusive: 3.98 µM [inhibitor, full curve, poor fit].
For CSc1ccc(/C=C(/C#N)C(=O)NC(C)C)cc1, the Potency was inconclusive: 39.8 µM [inhibitor, single point].
For CCn1ncc(CN2CCCC(C(=O)N3CCN(c4ccccn4)CC3)CCNC(=O)CC2)c1C (stereo unspecified), the Potency was active: 25.1 µM.
For CNC(=O)c1c[nH]c2cccnc12, the Potency was inconclusive: 141 µM [inhibitor, partial curve, poor fit].
With CCCCn1nc(C(=O)Nc2cccc(OC)c2)c2ccccc2c1=O the Potency was “inactive”.
For CCCn1c(C)c(C)c(-c2nc3ccccc3[nH]2)c1NC(=O)CC(C)C, the Potency was inconclusive: 20 µM [inhibitor, partial curve, poor fit].
In the case of Cc1ccc2c(COC(=O)CNS(=O)(=O)c3ccc(C)c(C)c3)cc(=O)oc2c1, the Potency is reported as “inactive”.
C=Cc1ccc(Cn2c(C)c(CNCc3ccc(SC)cc3)c(C(=O)O)c2C)cc1 was tested, and the Potency was inconclusive: 1.58 µM [inhibitor, full curve, poor fit].
In the case of Cc1ccc(CNC(=O)[C@H](Cc2ccccc2)NC(=O)c2cccs2)n1C, the Potency is reported as inconclusive: 17.8 µM [inhibitor, partial curve, poor fit].
In the case of CCC(Cn1ccnc1-c1ccc(SC)cc1)N1CCN(C)CC1 (stereo unspecified), the Potency is reported as inconclusive: 12.6 µM [inhibitor, partial curve].
For O=C(CN1C(=O)c2cccc3cccc1c23)Nc1cccc(F)c1, the Potency was inconclusive: 44.7 µM [inhibitor, single point].
Cc1oc(-c2nc(C#N)c(N3CCCCCC3)o2)cc1S(=O)(=O)N1CCCC1 was tested, and the Potency was inconclusive: 10 µM [inhibitor, partial curve, poor fit].
In the case of CC(=O)Nc1cccc(-c2cnc3n[nH]c(-c4ccc(F)cc4C)c3n2)c1, the Potency is reported as active: 35.5 µM.
With CCN(C(=O)COC(=O)c1cc2ccccc2[nH]1)C1CCCCC1 the Potency was inconclusive: 39.8 µM [inhibitor, single point].
For Cc1nc(-c2ccccc2)sc1C(=O)Nc1ccc(C(C)C)cc1, the Potency was inconclusive: 31.6 µM [inhibitor, single point].
With COC(=O)Cc1c(C)c2ccc(OCC(=O)OC(C)(C)C)cc2oc1=O the Potency was inconclusive: 22.4 µM [inhibitor, partial curve, poor fit].
In the case of CCN1c2cc(C(=O)Nc3ccc(F)c(F)c3)ccc2C(=O)N2CCCC21 (stereo unspecified), the Potency is reported as inconclusive: 14.1 µM [inhibitor, partial curve, poor fit].
With O=C(CCc1cc2n(n1)CCCNC2)N1CCCN(c2ccncc2)CC1 the Potency was inconclusive: 7.94 µM [inhibitor, partial curve, poor fit].
With CCN1c2cc(C(=O)NCc3cccc(C)c3)ccc2C(=O)N2CCCCCC21 (stereo unspecified) the Potency was inconclusive: 25.1 µM [inhibitor, partial curve, poor fit].
For O=S(=O)(c1ccc(F)cc1)N1CCN(CC(O)COc2ccccc2F)CC1 (stereo unspecified), the Potency was inconclusive: 15.8 µM [inhibitor, partial curve, poor fit].
For CC1CCN([C@@H]2[C@H](O)[C@H](CO)O[C@@H]2CNC(=O)c2ccc(F)c(Cl)c2)CC1, the Potency was “inactive”.
In the case of COc1ccc(-c2nnc(C[C@@H]3C[C@@H](C(C)C)[C@H](CNc4ccccn4)C=C3C)o2)cc1, the Potency is reported as inconclusive: 35.5 µM [inhibitor, partial curve, poor fit].
In the case of O=C1CN(C(=O)CCC(=O)N2CCC(CCOc3ccccc3F)C2)c2ccccc2N1 (stereo unspecified), the Potency is reported as inconclusive: 7.08 µM [inhibitor, partial curve, poor fit].
In the case of CC(CCc1ccccc1)NCc1ccco1 (stereo unspecified), the Potency is reported as inconclusive: 15.8 µM [inhibitor, partial curve, poor fit].
O=C(Cc1ccsc1)Nc1cnc(-c2ccccc2)nc1 was tested, and the Potency was “inactive”.
With Cc1ccccc1CN1CC2(COCC1=O)CN(c1ccc(C(F)(F)F)cn1)C2 the Potency was inconclusive: 39.8 µM [inhibitor, single point].
With Cc1nnc(-c2cc(Nc3cccc(N(C)C)c3)ccn2)n1Cc1ccccc1 the Potency was active: 31.6 µM.
Cc1nn(-c2ncccn2)c2c1C(c1cccc(OCC(C)C)c1)CC(=O)N2 (stereo unspecified) was tested, and the Potency was “inactive”.
For Cc1ccccc1C(=O)Nc1ccc(C(=O)OCc2cc(=O)n3c4c(sc3n2)CCCC4)cc1, the Potency was inconclusive: 39.8 µM [inhibitor, partial curve, poor fit].
For Cc1oc2c(c(C)cc3oc(=O)c(CC(=O)NCC(=O)NCC(=O)NCC(C)O)c(C)c32)c1C (stereo unspecified), the Potency was inconclusive: 25.1 µM [inhibitor, partial curve, poor fit].
In the case of Cc1ccc(-n2c(=O)c3ccc(C(=O)NCc4ccccc4Cl)cc3n(CC(N)=O)c2=O)cc1, the Potency is reported as inconclusive: 14.1 µM [inhibitor, partial curve, poor fit].
For COc1ccc(N2CCC(NC(=O)c3cccc(N(C)C)c3)C2=O)cc1 (stereo unspecified), the Potency was inconclusive: 31.6 µM [inhibitor, partial curve, poor fit].
For CC(C)(C)c1ccc(C(=O)Nc2nc3c(s2)C[C@@H]2[C@](C)(CO)[C@H](O)CC[C@@]2(C)[C@@H]3CC(=O)N2CCOCC2)cc1, the Potency was active: 28.2 µM.
Cc1cccc(CNC(=O)c2cnc3sc(N4CCOCC4)nn3c2=O)c1 was tested, and the Potency was inconclusive: 2.24 µM [inhibitor, partial curve, poor fit].
CN1c2cc(C(=O)NCc3cccs3)ccc2C(=O)N2CCCC21 (stereo unspecified) was tested, and the Potency was inconclusive: 28.2 µM [inhibitor, partial curve, poor fit].
For COc1ccc(NC(=O)c2ccc3c(c2)NC(C)(CNc2ccccc2)CO3)cn1 (stereo unspecified), the Potency was “inactive”.
Cc1cccc(OCCCCn2c(C3CC(=O)N(c4ccc(C)cc4C)C3)nc3ccccc32)c1 (stereo unspecified) was tested, and the Potency was inconclusive: 31.6 µM [inhibitor, partial curve, poor fit].
Further: nearly all actives have a fitted effect of over 70% in size.
Potency means the concentration at half of the fitted maximal effect; tags describe the fitted curve by direction and shape.
